Reference: PubChem BioAssay AID504444 (National Center for Advancing Translational Sciences (NCATS), 2011)
In all, about 360,000 compounds went through this assay and about 7,500 (2.1%) were called active. Inconclusive results (about 20%) are left out. Calls follow the shape of the dose curve; as a rule, active = well fitted inhibition curve with a large enough effect; inconclusive = small, poorly fitted or top-dose-only effect, or effect the other way; inactive = flat fitted curve, though single readings scatter. The entries are a selection whose mix differs from that of the whole data set. More than one record can exist for a structure, and the calls need not agree.

Experiment: Nrf2 qHTS screen for inhibitors; also: nearly all actives have a fitted effect of over 60% in size
Conditions: A549 ARE-Fluc reporter, luciferase luminescence, 18-24 h; series mostly up to 46 µM; activity change, negative = inhibition: at the top concentration
Excerpt: NIH Molecular Libraries Probe Production Network [MLPCN]
NIH Chemical Genomics Center [NCGC]
Assay Provider: Shyam Biswal, Johns Hopkins University
Nrf2 is a transcription factor that maintains cellular redox homoestasis and protects cells from xenobiotics. Nrf2 binds to the antioxidant response element (ARE) to induce gene expression of a broad spectrum of genes that encode for antioxidants. […] Finding a small molecule that act as an inhibitor of Nrf2 function would represent a novel therapeutic target that could lead to improvement in survival of patients undergoing chemo- and/or radio- therapy.
This is the Nrf2 activity measured in the luminescent read.
1. Shibata, T., et al., Genetic Alteration of Keap1 Confers Constitutive Nrf2 Activation and Resistance to Chemotherapy in Gallbladder Cancer. Gastroenterology, 2008.
2. Sjoblom, T., et al., The consensus coding sequences of human breast and colorectal cancers. Science, 2006. 314(5797): p. 268-74.
NCGC Assay Protocol Summary:
A concentration-response assay was performed with A549 ARE_Fluc cells which are suspended in 5% FBS OPTI-MEM. Five uL were dispensed into 1536-well white TC-treated plate using the Kalypsys dispenser to achieve a density of 5000 cells/well in all columns except column 1. The plate is incubated at 37deg C at 5% CO2 for 2 hours before 23 nL of compounds are added with the Kalypsys pin tool equipped with a 1,536-pin array containing 10-nL slotted pins (FP1S10, 0.457-mm diameter, 50.8 mm long; V&P Scientific). The control compounds Budesonide and Staurosporine are both added at a concentration of 2mM and Budesonide is also added as a 1:10 titration, starting at 200uM, to achieve dose-response. After an 18-24 hour incubation at 37deg C at 5% CO2, 5ul of medium is added to column 1. Afterwards 1ul of 5x of CellTiter-Fluor (Promega) is added to every well. The plate is then incubated at 37deg C at 5% CO2 for 30 minutes before they are read on the ViewLux (Perkin Elmer) for a fluorescent read Ex=405(10)/Em=525(10) for a 3 second exposure, 2x binning, and high gain. Then 3 uL of 3x BugLite is dispensed into all wells and the plate is incubated at ambient room temperature for 15 minutes. Afterwards another ViewLux read is performed using the clear filter to get a luminescent read with the settings of 40 second exposure, 2x binning, and high gain. Cytotoxicity is assessed through the first fluorescent read and then biochemical activity against Nrf2 is measured in the luminescent read.
% is scaled to controls: 0 for no effect and ±100 for the full control effect; potency is read from the fitted curve at half-maximal effect.

Compound	activity change, negative = inhibition	Potency
CCN(CCCNC(=O)Cn1ncc2c([nH]c3ccc(C)cc32)c1=O)Cc1ccccc1	inactive: 11.4%	
CCOC(=O)[C@@H]1[C@H]2COc3ccc(Br)cc3[C@@H]2N2C(=O)N(c3ccc(OC)cc3)C(=O)[C@]12C	inactive: 4.95%	
C=CC[C@H](CC(=O)N(CCO)Cc1ccccc1)C(=O)NCCOC(=O)[C@@H](CC=C)CC(=O)OC(C)(C)C	inactive: 13.2%	
C#CCNC(=O)C1=C[C@H](c2csc3ccccc23)C[C@H](OCc2ccc(CO)cc2)O1	inactive: -1.33%	
O=S(=O)(c1ccccc1)c1nc(-c2cccc(Cl)c2)oc1N1CCOCC1	inactive: -12%	
Cc1ccccc1-c1cc(C(=O)NCc2ccc(OC(F)(F)F)cc2)n(CC2CC(c3cccnc3)=NO2)n1 (stereo not given)		active: 20.6 µM
Cn1c(=O)c(=O)n(C)c2cc(S(=O)(=O)CCC(=O)Nc3ccc(F)cc3)ccc21	inactive: 2.45%	
CCOc1ccc(-c2nnc(N3CCCCC3)c3ccccc23)cc1		active: 25.9 µM
Cc1nn(-c2ccc(N3CCOCC3)nn2)c(C)c1CCC(=O)NCc1ccc(F)cc1	inactive: 5.68%	
CCCCN(CC)CCCNC(=O)c1cc2c(=O)[nH]c3ccccc3c2s1	inactive: 12.9%	
CS(=O)(=O)c1ccc(CNC(=O)C2(C(F)(F)F)C/C(=C\Cc3ccccc3)CCCO2)cc1 (stereo not given)	inactive: 1.98%	
C[C@@H]1CC[C@@]2(O[C@H](CCO)C[C@H](O)[C@H]2O)O1	inactive: -13%	
COC(C[C@H]1O[C@H]1[C@@H](O)[C@H](C)OCc1ccccc1)OC	inactive: 5.3%	
Oc1ccc(N=Nc2ccc3ccccc3c2)cc1		active: 2.59 µM
COc1cc(OC)cc(C(=O)N[C@H](C(=O)Nc2nc(-c3ccc(OC)c(OC)c3)cs2)C(C)C)c1		active: 7.31 µM
Cc1cc2c(cc1S(=O)(=O)Nc1ccc(C(C)C)cc1)OCCN2C		active: 13 µM
O=C1CC[C@@H](C(=O)O)N1	inactive: 4.38%	
C=CC[C@@H](CC(=O)N(CCO)Cc1ccccc1)C(=O)N[C@H](COC(=O)[C@@H](CC=C)CC(=O)OC(C)(C)C)Cc1ccccc1	inactive: 1.96%	
COc1ccc(C2/C=C\CN(C(=O)CC(C)(C)C)CC(=O)N2Cc2ccc(F)cc2)cc1 (stereo not given)	inactive: -0.452%	
Cc1ccc(Cl)cc1N1CCN(S(=O)(=O)c2ccc3c(c2)CC(=O)N3C)CC1	inactive: -6.94%	
CCOC(=O)C1CCCN(S(=O)(=O)c2ccc3c(c2)N(C)C(=O)CC(=O)N3C)C1 (stereo not given)	inactive: -5.37%	
C[C@H]1NC(=O)[C@]2(C)[C@@H](c3ccccc3)[C@H]3COc4ccccc4[C@@H]3N2C1=O	inactive: 9.26%	
C=CCC[C@@H](Cc1ccc(F)cc1)C(=O)OC[C@H](C)NC(=O)[C@@H](CC=C)CC(=O)N(CCO)Cc1ccccc1	inactive: -23.9%	
CCC(=O)N1c2ccc(S(=O)(=O)N3CCN(c4ccccc4Cl)CC3)cc2CC1C (stereo not given)	inactive: 0.848%	
Cc1cccc(C)c1Nc1c(-c2ccccc2O)nc2ncccn12	inactive: 3.62%	
O=C(/C=C/c1ccccc1)Nc1nc(-c2ccncc2)cs1		active: 13 µM
O=C(c1ccc(Cl)cc1)N1CCN(c2ccc([N+](=O)[O-])c(NCc3cccnc3)c2)CC1		active: 25.9 µM
CCn1c(SCC(=O)N2CCN(c3ccc(Cl)cc3)CC2)nc2ccccc2c1=O	inactive: 12.1%	

Compound	activity change, negative = inhibition	Potency
C[C@]12C=CC(=O)C=C1CC[C@@H]1[C@@H]2[C@@H](O)C[C@@]2(C)[C@H]1CC[C@]2(O)C(=O)CO		active: 0.058 µM
CN1CCN(C(=O)/C=C\c2ccc(Cl)cc2)CC1	inactive: 3.36%	
CCc1nn(CCCC(=O)NCc2ccc(C)cc2)c(=O)c2cc3occc3n12	inactive: -14.8%	
CCOC(=O)C1CCCN(S(=O)(=O)c2cc(Br)cc3c2N(C(C)=O)CC3)C1 (stereo not given)	inactive: 1.94% [at 9.27 µM]	
O=C(CCCN1C(=O)/C(=C/c2ccccc2)SC1=S)Nc1ccc(O)cc1	inactive: 19.4%	
O=C1[C@H](Cc2ccccc2)NCCCC[C@@H](c2ccc(Cl)cc2)N1Cc1ccccc1	inactive: 10.8%	
CC(=O)c1cccc(NC(=O)c2ccc3c(c2)CCN3S(=O)(=O)c2ccccc2)c1	inactive: 4.6%	
CCN1C(=O)[C@@H]2[C@@H](c3ccc(-c4ccc(Cl)c(Cl)c4)cc3)N3CCCC[C@@]3(C(=O)OC)[C@@H]2C1=O	inactive: -14.7%	
O=c1c2ccccc2nc(SCc2nc3ccccc3s2)n1Cc1ccco1		active: 4.61 µM
Cc1ccc(NC(=O)n2ncc3c(C)cccc32)c(C)c1	inactive: -7.21%	
CC(=O)c1c(N2CCN(Cc3ccccc3)CC2)nc(=S)n(Cc2ccccc2)c1C		active: 20.6 µM
CCN(CC)CCNC(=O)c1ccc(NC(C)=O)cc1	inactive: 5.42%	
CCOC(=O)C1CCCN(C(=O)Cn2ncc3c([nH]c4ccccc43)c2=O)C1 (stereo not given)	inactive: -13.5%	
Cc1ccc(NS(=O)(=O)c2ccc3c(c2)CCC(=O)N3)cc1C	inactive: -26.2%	
O=C1SC(SC(=Nc2ccccc2)Nc2ccccc2)C(=O)N1c1ccccc1 (stereo not given)	inactive: 35.9%	
O=C1c2ccccc2NC(c2ccc(O)cc2)N1Cc1ccco1 (stereo not given)	inactive: -1.81%	
CCC(C)N(C(=O)CSc1nc(-c2cccs2)nc2ccccc12)C1CCS(=O)(=O)C1 (stereo not given)		active: 8.2 µM
COC(=O)C1=C[C@@H](C(=O)OC)[C@@H]2C3=C(C(=O)[C@]2(C)NC(=O)c2ccccc2)[C@H](C)n2c(=O)n(-c4ccccc4)c(=O)n2[C@@H]3C1	inactive: 2.37%	
Cc1ccccc1NC(=O)COC(=O)c1ccc(S(C)(=O)=O)c([N+](=O)[O-])c1	inactive: 2.12%	
CCOC(=O)[C@@H]1[C@H]2COc3cc(OC)ccc3[C@H]2N2C(=O)N(c3cccc(F)c3)C(=O)[C@]12C	inactive: -18.2%	
COc1ccc(S(=O)Cc2ccc(C(=O)N3CCN(c4cccc(C)c4C)CC3)o2)cc1 (stereo not given)	inactive: -19.4%	
CCN1CCN(CCCNC(=O)CS(=O)(=O)Cc2nc(-c3cccc(OC)c3)oc2C)CC1	inactive: 4.02%	
O=C(NCc1ccc(Cl)cc1)c1cc(S(=O)(=O)N2CCCCC2)c[nH]1	inactive: -7.44%	
Cc1cc2c(cc1S(=O)(=O)NCc1ccccc1Cl)OCCN2C	inactive: -20.8%	
CC(C)(C)c1nc(N2CCN(C(=O)c3ccco3)CC2)c2nnn(Cc3ccccc3)c2n1		active: 8.2 µM
C=C1CC[C@@H]2[C@](C)(CO)[C@H](O)CC[C@@]2(C)[C@@H]1/C=C/C1=CCOC1=O	inactive: -56.7%	
COc1cc(C(=O)NCC(c2cccnc2)N2CCN(c3ccc(F)cc3)CC2)cc(OC)c1OC (stereo not given)	inactive: -10.7%	
